# Laboratory results published in PubChem BioAssay AID686971 (National Center for Advancing Translational Sciences (NCATS), 2013).
# Screen size: about 360,000 compounds; about 7,500 (2.1%) were called active. This list was built around the results that the source calls inconclusive (neither active nor inactive); the mix of calls is not that of the screen. The call rests on the fitted dose curve; in most records, active means well fitted cell-killing curve with a large enough effect; inconclusive means small, poorly fitted or top-dose-only effect, or effect the other way, or another doubt; inactive means no such curve, though single readings can be large or run the other way. Potencies of inconclusive entries are left out as doubtful fits.
# Assay: qHTS for induction of synthetic lethality in tumor cells producing 2HG: qHTS for the HT-1080-IDH1KD cell line;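 on activity, negative = toxicity: 0% = DMSO wells and -100% = cell-free medium wells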
# Conditions: HT-1080 IDH1 knockdown viability, ATP luminescence, 48 h; activity, negative = toxicity: at 46.1 µM (top of the series) unless noted
# Procedure, shortened: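 Cytotoxicity counter-line: IDH1KD HT-1080, 48 h, CellTiter-Glo. Curves classed by r2, magnitude and activity.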
# Potency means the concentration at half of the fitted maximal effect; tags describe the fitted curve by direction and shape.
Compound,Potency,"activity, negative = toxicity"
CC#CC[N+](C)(C)CCCCCCCCCCCC,active: 23.1 µM,–
Cc1ccc2[nH]c3c(N4CCN(Cc5ccccc5)CC4)ncnc3c2c1,active: 20.6 µM,–
Cc1ccc(NS(=O)(=O)c2ccc3c(c2)c(=O)n(C)c(=O)n3C)cc1F,"inconclusive [cytotoxic, single point]",–
CCOC(=O)c1c(C)[nH]c(C)c1C(=O)COC(=O)/C=C/c1ccc(OC)cc1,active: 14.6 µM,–
CCOC(=O)c1c(NC(=O)CSc2nnc(-c3ccco3)o2)sc(C(C)=O)c1C,inactive,–
O=C(Nc1cc(C(F)(F)F)ccc1N1CCCC1)C1CC(=O)N(Cc2ccccc2)C1 (stereo unspecified),inactive,–
CN(CC(=O)Nc1ccccc1Br)C(=O)c1cccnc1Nc1cccc(C(F)(F)F)c1,"inconclusive [cytotoxic, single point]",–
O=C(CC1C(=O)NCCN1Cc1cccc(F)c1)NCCCCCN1CCOCC1 (stereo unspecified),inactive,–
CCCN(CC1CC1)c1cc2c(c3c1ccn3C)C1CCC2C1 (stereo unspecified),"inconclusive [cytotoxic, single point]",–
O=C(CCSc1ccccc1Cl)Nc1cccc([N+](=O)[O-])c1,"inconclusive [cytotoxic, single point]",–
O=C(Nc1ccc(Cl)cc1C(=O)NCc1cccnc1)c1ccc(Cl)cc1Cl,"inconclusive [cytotoxic, single point]",–
Cc1ccc(C(=O)/C=C/c2cn(CC(O)CN3CCOCC3)c3ccccc23)cc1 (stereo unspecified),"inconclusive [cytotoxic, single point]",–
CCC(C)Sc1cccc(-c2nc3cnccn3c2NC2CCCCC2)c1 (stereo unspecified),"inconclusive [cytotoxic, single point]",–
COc1cc(OC)c2cc(C(=O)N/N=C/c3cccc(OC)c3O)[nH]c2c1,active: 9.2 µM,–
COc1ccc(-c2csc(NC(=O)c3cc(C)on3)c2C#N)cc1OC,"inconclusive [cytotoxic, single point]",–
Cc1cc(Br)c2nc(-c3ccccc3)c(Cc3cccc(Cl)c3)n2c1,inactive,–
CCN(CC)CCCN(C(=O)c1cccs1)c1nc(-c2ccc(OC)cc2)cs1,"inconclusive [cytotoxic, single point]",–
CCCNC(=O)c1cc2c(c(-c3cccc(-c4ccccc4F)c3)n1)[C@H](CCO)N(C(=O)CC1CC1)C2,"inconclusive [cytotoxic, single point]",–
O=C(C=Cc1ccccc1F)c1ccccc1,"inconclusive [cytotoxic, single point]",–
O=S(=O)(Cc1ncc(C(F)(F)F)cc1Cl)c1ccccc1,"inconclusive [cytotoxic, single point]",–
CCOc1ccc(Cl)cc1-c1cc(C(=O)NCc2cccc(C(F)(F)F)c2)[nH]n1,"inconclusive [cytotoxic, single point]",–
CC(C)C(=O)Nc1ncc(Cc2ccccc2Cl)s1,inactive,–
Cc1cc(NC(=O)c2ccc(NC(=O)C3CCCO3)cc2)ccc1Br (stereo unspecified),"inconclusive [cytotoxic, single point]",–

Compound,Potency,"activity, negative = toxicity"
CCN1CCN(C(=O)CCc2nc3ccccc3c(=O)[nH]2)CC1,inactive,–
CC(C)N(C(=O)[C@H]1C[C@H](CC(=O)NCc2ccco2)C(=O)N2CCc3c([nH]c4cc(CCC(=O)N(C)C)ccc34)[C@]12C)C(C)C,inactive,–
COc1ccc(C(C(=O)NC2CCCC2)N(C(=O)c2snc(-c3ccc(F)cc3)c2N)c2cccc(F)c2)cc1 (stereo unspecified),inactive,–
O=C(CSCc1ccc(Cl)cc1)NCc1ccc2c(c1)OCO2,inactive,–
Cc1ccc(-c2cc(-c3ccc(F)cc3)c(C#N)c(N)n2)o1,"inconclusive [cytotoxic, single point]",–
CCCc1ccc(OC(=O)c2ccc(O)cc2Cl)cc1,"inconclusive [cytotoxic, single point]",–
COc1ccc(OC)c(/C=N/Nc2nncn2/N=C/c2cc(OC)ccc2OC)c1,active: 14.6 µM,–
O=C(C[C@H]1CC[C@@H](NC(=O)c2ccncc2)[C@@H](CO)O1)NCC1CC1,"inconclusive [rising, single point]",–
CCc1ccc(OCCn2cccn2)cc1,–,inconclusive: 30.9%
CN(C)c1ccc(CNC(=O)C2Cc3c(-c4ccccc4Oc4ccccc4)ccnc3O2)cc1 (stereo unspecified),"inconclusive [cytotoxic, single point]",–
COC(=O)Cc1c(C)nc2nc[nH]n2c1=O,–,inconclusive: 39%
O=C1c2ccccc2NC(c2cn[nH]c2-c2ccc(Cl)cc2)N1O (stereo unspecified),"inconclusive [cytotoxic, partial curve]",–
O=C(Cc1csc(Nc2nc(=S)[nH]c3ccccc23)n1)NCc1cccc(Cl)c1,"inconclusive [cytotoxic, single point]",–
CCOc1ccc(C(CN2CCOCC2)C(C)=O)cc1OC (stereo unspecified),active: 10.3 µM,–
C=CC[C@@H](CC(=O)N[C@@H](CO)Cc1ccccc1)C(=O)NC[C@H](OC(=O)[C@@H](CC=C)Cc1ccc(F)cc1)c1ccccc1,active: 23.1 µM,–
Cc1cc(OC(=O)c2ccccc2C)c([N+](=O)[O-])c(=O)[nH]1,inactive,–
Cc1ccc2nc(-c3cccc(N)c3)oc2c1,"inconclusive [cytotoxic, single point]",–
N=c1oc2ccc(Br)cc2cc1C(=O)NCc1ccccc1,inactive,–
CCOc1ccc(CCN2C(=S)N([C@@H](CC(C)C)CN3CCC[C@@H]3CN3C(=S)NC[C@@H]3Cc3ccc(O)cc3)C[C@@H]2Cc2ccc(O)cc2)cc1,"inconclusive [cytotoxic, single point]",–
COc1ccc(NS(=O)(=O)c2cc(NC(=O)c3nc4nc(C)cc(C)n4n3)ccc2C)cc1,"inconclusive [cytotoxic, single point]",–
Cc1c(C(=O)NCc2ccco2)sc2nc(-c3ccccc3)cn12,"inconclusive [cytotoxic, partial curve]",–
O=C(Nc1nccs1)c1cnccn1,inactive,–
CCOC(=O)/C(=C/Nc1ccc(F)cc1)[N+](=O)[O-],inactive,–
